No constants are given. Whether binding was seen depends on the method and setting. Binding seen in cells or lysates may run through a third protein. Some entries that bind do so weakly or less than the wild type.
Experiments:
[1] = biological target: HA‐tagged YAP1 (mouse (cDNA from HL-1 cells)) (UniProt P46938); assay: co-IP; HL-1 cells transfected with His-tagged DNA-PKcs or HA-tagged YAP1 constructs (wild type or deletion mutants), high glucose exposure; immunoprecipitation and immunoblot
[2] = biological target: T1, LATS2 (in HL‐1 cells) (mouse (in HL-1 cells)) (UniProt Q7TSJ6); assay: as above
T1 sequence: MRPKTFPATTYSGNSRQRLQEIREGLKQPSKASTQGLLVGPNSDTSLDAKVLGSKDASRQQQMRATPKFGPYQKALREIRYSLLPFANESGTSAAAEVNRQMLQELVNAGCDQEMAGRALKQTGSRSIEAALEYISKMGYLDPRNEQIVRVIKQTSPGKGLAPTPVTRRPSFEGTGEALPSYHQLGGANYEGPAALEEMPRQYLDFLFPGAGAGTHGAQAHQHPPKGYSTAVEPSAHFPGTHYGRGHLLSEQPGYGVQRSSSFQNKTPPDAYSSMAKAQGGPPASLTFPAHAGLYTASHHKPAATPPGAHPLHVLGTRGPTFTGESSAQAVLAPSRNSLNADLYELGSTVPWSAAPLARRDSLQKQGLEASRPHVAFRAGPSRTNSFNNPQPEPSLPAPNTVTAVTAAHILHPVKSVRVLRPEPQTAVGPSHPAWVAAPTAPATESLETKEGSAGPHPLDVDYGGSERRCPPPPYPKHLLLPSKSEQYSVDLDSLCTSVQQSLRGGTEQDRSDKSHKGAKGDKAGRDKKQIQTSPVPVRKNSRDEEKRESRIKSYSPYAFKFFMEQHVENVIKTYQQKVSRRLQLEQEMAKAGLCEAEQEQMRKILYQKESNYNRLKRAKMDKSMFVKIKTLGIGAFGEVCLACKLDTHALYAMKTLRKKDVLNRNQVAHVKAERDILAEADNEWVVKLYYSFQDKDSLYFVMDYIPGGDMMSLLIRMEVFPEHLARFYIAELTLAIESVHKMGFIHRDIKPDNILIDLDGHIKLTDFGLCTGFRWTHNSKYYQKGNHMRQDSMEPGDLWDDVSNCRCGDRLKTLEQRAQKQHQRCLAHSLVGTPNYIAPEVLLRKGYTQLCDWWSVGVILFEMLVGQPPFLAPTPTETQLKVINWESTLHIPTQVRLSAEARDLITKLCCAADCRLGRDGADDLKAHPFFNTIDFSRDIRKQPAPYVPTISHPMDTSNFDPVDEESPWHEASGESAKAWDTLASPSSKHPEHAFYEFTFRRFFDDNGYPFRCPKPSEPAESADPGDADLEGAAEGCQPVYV

Chains of the proteins cited; added tags and fusions are not shown.
UniProt P46938: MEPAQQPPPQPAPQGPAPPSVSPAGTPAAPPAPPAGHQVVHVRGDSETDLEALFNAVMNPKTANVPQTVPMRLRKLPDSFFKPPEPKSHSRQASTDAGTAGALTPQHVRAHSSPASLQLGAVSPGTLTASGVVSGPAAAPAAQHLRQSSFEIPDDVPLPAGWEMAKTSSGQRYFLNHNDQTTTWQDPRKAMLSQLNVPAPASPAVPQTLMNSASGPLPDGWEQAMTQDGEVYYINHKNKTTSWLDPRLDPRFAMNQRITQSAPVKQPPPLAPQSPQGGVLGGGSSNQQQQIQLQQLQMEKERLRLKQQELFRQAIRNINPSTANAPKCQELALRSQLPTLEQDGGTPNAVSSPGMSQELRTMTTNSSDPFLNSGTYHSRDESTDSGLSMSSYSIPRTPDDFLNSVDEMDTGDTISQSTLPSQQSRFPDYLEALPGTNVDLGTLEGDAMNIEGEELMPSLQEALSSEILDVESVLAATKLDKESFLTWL
UniProt P97313: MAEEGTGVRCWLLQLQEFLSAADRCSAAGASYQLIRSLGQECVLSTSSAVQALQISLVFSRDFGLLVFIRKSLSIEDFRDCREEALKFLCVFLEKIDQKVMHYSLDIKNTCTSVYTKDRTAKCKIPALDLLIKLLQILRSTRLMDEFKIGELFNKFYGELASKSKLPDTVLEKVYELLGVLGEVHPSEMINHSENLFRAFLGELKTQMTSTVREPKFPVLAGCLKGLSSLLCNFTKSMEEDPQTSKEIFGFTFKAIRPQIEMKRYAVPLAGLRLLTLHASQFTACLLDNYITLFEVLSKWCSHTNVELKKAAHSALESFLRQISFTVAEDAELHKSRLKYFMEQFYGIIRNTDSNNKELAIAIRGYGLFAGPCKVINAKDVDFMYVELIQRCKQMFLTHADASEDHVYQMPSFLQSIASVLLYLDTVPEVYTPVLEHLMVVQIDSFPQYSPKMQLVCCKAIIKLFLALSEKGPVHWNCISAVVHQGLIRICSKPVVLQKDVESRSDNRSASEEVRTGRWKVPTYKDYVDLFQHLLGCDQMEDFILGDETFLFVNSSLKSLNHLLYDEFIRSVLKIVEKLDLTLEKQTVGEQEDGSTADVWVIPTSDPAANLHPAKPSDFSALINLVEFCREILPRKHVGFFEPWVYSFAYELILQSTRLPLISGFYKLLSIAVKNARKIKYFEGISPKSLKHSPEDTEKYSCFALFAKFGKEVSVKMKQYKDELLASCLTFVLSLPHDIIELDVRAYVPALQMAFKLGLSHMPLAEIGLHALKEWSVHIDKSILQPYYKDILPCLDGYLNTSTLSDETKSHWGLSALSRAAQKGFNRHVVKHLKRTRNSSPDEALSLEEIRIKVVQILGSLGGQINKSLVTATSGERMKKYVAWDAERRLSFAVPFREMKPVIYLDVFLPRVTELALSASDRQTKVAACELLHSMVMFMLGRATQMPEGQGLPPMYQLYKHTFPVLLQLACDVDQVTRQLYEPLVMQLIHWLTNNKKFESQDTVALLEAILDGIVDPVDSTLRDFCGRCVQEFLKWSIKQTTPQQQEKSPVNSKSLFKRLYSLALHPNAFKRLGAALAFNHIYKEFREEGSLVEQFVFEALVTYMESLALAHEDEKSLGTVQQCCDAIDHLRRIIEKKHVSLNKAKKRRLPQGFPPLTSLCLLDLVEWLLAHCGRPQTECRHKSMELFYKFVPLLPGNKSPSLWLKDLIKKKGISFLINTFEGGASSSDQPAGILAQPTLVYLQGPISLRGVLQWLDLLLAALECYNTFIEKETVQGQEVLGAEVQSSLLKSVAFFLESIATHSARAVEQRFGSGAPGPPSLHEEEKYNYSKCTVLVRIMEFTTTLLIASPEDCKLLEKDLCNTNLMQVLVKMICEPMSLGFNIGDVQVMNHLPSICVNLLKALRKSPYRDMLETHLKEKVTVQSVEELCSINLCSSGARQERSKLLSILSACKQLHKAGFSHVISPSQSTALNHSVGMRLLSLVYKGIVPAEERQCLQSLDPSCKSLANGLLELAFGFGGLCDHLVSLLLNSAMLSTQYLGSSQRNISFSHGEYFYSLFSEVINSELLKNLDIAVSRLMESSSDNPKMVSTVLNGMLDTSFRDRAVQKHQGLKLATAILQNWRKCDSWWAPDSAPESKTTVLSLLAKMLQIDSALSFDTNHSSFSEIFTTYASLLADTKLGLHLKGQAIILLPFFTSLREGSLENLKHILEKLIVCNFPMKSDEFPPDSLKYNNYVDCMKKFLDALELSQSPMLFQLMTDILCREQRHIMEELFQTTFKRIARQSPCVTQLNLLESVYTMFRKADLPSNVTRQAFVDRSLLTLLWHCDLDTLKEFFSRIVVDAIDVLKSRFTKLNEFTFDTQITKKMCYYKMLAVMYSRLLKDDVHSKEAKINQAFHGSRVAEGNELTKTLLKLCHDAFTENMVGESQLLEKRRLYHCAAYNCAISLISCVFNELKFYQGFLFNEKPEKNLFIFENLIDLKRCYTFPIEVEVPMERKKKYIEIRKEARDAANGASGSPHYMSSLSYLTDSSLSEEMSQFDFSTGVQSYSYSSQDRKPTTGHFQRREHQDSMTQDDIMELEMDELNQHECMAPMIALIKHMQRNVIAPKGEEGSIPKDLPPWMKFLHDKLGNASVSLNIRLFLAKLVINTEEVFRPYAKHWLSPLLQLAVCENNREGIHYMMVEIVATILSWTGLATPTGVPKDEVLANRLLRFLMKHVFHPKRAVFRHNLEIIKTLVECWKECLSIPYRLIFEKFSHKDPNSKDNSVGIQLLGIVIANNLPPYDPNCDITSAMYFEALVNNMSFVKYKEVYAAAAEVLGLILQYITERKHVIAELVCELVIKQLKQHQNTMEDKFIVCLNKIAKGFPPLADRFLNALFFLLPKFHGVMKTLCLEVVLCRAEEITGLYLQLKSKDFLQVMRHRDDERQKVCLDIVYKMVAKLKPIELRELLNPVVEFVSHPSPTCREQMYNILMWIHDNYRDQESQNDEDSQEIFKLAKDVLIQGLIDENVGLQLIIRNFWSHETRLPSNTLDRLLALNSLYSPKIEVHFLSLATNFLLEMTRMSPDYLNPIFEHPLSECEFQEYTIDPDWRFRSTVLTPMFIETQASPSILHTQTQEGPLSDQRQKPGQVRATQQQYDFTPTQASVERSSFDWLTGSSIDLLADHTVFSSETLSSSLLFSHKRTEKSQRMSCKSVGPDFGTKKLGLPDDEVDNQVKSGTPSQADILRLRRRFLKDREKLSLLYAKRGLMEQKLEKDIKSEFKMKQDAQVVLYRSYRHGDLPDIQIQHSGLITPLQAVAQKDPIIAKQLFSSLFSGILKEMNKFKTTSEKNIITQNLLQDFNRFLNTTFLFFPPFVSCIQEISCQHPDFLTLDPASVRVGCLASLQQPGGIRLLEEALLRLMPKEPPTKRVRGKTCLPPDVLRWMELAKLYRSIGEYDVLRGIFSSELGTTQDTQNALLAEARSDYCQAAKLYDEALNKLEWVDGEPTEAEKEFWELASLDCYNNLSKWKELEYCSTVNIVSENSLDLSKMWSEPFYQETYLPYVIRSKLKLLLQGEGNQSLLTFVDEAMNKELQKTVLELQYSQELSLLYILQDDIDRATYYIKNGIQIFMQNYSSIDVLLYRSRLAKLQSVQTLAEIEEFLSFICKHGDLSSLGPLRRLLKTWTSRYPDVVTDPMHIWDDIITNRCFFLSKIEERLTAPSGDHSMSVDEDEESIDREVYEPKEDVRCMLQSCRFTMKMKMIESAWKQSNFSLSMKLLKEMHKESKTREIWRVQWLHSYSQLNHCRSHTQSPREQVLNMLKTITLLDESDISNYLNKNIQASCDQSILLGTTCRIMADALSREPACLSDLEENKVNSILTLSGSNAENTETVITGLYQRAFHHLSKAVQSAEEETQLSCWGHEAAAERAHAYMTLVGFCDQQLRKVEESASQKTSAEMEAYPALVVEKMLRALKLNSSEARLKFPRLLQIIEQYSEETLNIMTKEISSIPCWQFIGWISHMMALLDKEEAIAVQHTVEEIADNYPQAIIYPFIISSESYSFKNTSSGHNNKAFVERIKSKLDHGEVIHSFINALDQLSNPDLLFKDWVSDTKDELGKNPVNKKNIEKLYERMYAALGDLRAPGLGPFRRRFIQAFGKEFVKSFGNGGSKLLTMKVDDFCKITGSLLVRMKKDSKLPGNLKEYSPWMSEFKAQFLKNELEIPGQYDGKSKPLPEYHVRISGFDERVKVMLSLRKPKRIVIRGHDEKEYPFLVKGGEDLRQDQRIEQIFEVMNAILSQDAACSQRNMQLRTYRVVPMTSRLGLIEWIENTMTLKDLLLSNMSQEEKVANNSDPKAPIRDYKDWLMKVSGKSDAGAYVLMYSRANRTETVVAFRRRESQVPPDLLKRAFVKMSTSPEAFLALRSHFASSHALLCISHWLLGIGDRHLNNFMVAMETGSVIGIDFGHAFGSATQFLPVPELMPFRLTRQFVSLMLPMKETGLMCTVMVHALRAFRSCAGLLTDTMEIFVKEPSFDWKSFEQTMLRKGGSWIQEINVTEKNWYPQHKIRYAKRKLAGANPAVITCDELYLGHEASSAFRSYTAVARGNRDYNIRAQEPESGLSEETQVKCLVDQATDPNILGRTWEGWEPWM

[3] = biological target: T2, MST1 (in HL‐1 cells) (mouse (in HL-1 cells)) (UniProt Q9JI11); assay: as above
T2 sequence: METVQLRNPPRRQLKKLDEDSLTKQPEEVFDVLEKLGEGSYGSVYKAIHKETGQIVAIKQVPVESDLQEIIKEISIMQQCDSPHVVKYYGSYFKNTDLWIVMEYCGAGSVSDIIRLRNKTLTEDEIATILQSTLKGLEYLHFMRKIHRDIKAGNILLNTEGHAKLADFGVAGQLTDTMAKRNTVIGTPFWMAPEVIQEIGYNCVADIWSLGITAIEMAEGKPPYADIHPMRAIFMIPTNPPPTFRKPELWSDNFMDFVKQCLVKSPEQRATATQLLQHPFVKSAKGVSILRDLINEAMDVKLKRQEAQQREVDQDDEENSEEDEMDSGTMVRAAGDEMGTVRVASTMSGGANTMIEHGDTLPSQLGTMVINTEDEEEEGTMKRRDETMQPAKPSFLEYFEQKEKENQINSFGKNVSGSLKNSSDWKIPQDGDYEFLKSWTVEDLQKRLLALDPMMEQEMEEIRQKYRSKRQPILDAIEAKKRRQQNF

[4] = biological target: DNA‐Dependent Protein Kinase catalytic subunit (DNA‐PKcs) (mouse (endogenous in heart tissue)) (UniProt P97313); assay: co-IP; immunoprecipitates of DNA-PKcs or YAP1 from heart tissues of mice with hyperglycemia-induced diabetic cardiomyopathy; Protein A/G magnetic beads, RIPA lysate, 4 °C overnight; immunoblot

His‐tagged DNA‐PKcs (from UniProt P97313 1-4128)
binding [1]: binds
binding [2]: no binding
binding [3]: no binding

Yes‐Associated Protein 1 (YAP1) (from UniProt P46938 1-488)
binding [4]: binds

B1: MST1 (protein, UniProt Q9JI11 1-487)
chain: METVQLRNPPRRQLKKLDEDSLTKQPEEVFDVLEKLGEGSYGSVYKAIHKETGQIVAIKQVPVESDLQEIIKEISIMQQCDSPHVVKYYGSYFKNTDLWIVMEYCGAGSVSDIIRLRNKTLTEDEIATILQSTLKGLEYLHFMRKIHRDIKAGNILLNTEGHAKLADFGVAGQLTDTMAKRNTVIGTPFWMAPEVIQEIGYNCVADIWSLGITAIEMAEGKPPYADIHPMRAIFMIPTNPPPTFRKPELWSDNFMDFVKQCLVKSPEQRATATQLLQHPFVKSAKGVSILRDLINEAMDVKLKRQEAQQREVDQDDEENSEEDEMDSGTMVRAAGDEMGTVRVASTMSGGANTMIEHGDTLPSQLGTMVINTEDEEEEGTMKRRDETMQPAKPSFLEYFEQKEKENQINSFGKNVSGSLKNSSDWKIPQDGDYEFLKSWTVEDLQKRLLALDPMMEQEMEEIRQKYRSKRQPILDAIEAKKRRQQNF
binding [4]: no binding

B2: LATS2 (protein, UniProt Q7TSJ6 1-1042)
chain: MRPKTFPATTYSGNSRQRLQEIREGLKQPSKASTQGLLVGPNSDTSLDAKVLGSKDASRQQQMRATPKFGPYQKALREIRYSLLPFANESGTSAAAEVNRQMLQELVNAGCDQEMAGRALKQTGSRSIEAALEYISKMGYLDPRNEQIVRVIKQTSPGKGLAPTPVTRRPSFEGTGEALPSYHQLGGANYEGPAALEEMPRQYLDFLFPGAGAGTHGAQAHQHPPKGYSTAVEPSAHFPGTHYGRGHLLSEQPGYGVQRSSSFQNKTPPDAYSSMAKAQGGPPASLTFPAHAGLYTASHHKPAATPPGAHPLHVLGTRGPTFTGESSAQAVLAPSRNSLNADLYELGSTVPWSAAPLARRDSLQKQGLEASRPHVAFRAGPSRTNSFNNPQPEPSLPAPNTVTAVTAAHILHPVKSVRVLRPEPQTAVGPSHPAWVAAPTAPATESLETKEGSAGPHPLDVDYGGSERRCPPPPYPKHLLLPSKSEQYSVDLDSLCTSVQQSLRGGTEQDRSDKSHKGAKGDKAGRDKKQIQTSPVPVRKNSRDEEKRESRIKSYSPYAFKFFMEQHVENVIKTYQQKVSRRLQLEQEMAKAGLCEAEQEQMRKILYQKESNYNRLKRAKMDKSMFVKIKTLGIGAFGEVCLACKLDTHALYAMKTLRKKDVLNRNQVAHVKAERDILAEADNEWVVKLYYSFQDKDSLYFVMDYIPGGDMMSLLIRMEVFPEHLARFYIAELTLAIESVHKMGFIHRDIKPDNILIDLDGHIKLTDFGLCTGFRWTHNSKYYQKGNHMRQDSMEPGDLWDDVSNCRCGDRLKTLEQRAQKQHQRCLAHSLVGTPNYIAPEVLLRKGYTQLCDWWSVGVILFEMLVGQPPFLAPTPTETQLKVINWESTLHIPTQVRLSAEARDLITKLCCAADCRLGRDGADDLKAHPFFNTIDFSRDIRKQPAPYVPTISHPMDTSNFDPVDEESPWHEASGESAKAWDTLASPSSKHPEHAFYEFTFRRFFDDNGYPFRCPKPSEPAESADPGDADLEGAAEGCQPVYV
binding [4]: no binding

Reference: publication PMC12302537
